# Data: the supplement of paper PMC8728848
# Some of the results follow.
# B1: PitA (Streptococcus oralis), G3F8D8 (protein)
# chain: MNIRFDFKKVQIIARRLVTLLAILFLCAPISLLNADSTTEPQTTLHKTITPISGQDDKYELSLDITSKLGTETQTDPLDVVLVADLSGSMQNQDVQSFDGRTISRIDALKNTLRGTNGRKGLIDTILSNSNNRLSMVGFGGKIDNKKVDQYWDGNKWRLFRPYWPYERMTKYYDGVSPWDDANTILGWSNNARAAKTAVYNMSIAGGNSIGTESGIGTGTNIGAGLTLANQLMGSARSNAKKVVILLSDGFANMVYDANGYTIYNYNNEDPNIETAPQWFWDRLNNNLNSLSYSLAPTLDGFYSIKFRYSNNVDSITSLQYYMRQHNASIPNEIFSANDEDQLRDSFKDITDKILPLGIHHVSIKDVLSKYVQLLPNGSSEFRVVKEKDGSSEILIENQVTFDTKTTSEGLVEVTAKFSPNYSLEDGARYVLKFTVTSSQEALDAIAGDKKLEAGDAEGSDVNKLYSNKGASVTYSYGIGNSQTKTKEYSDNPTFKPSDPLTVPVEVEWQGVTGARTVITADQPSNVELKLVQKNKNGGSDNQDYRKTNVNVSKNVSNETRNFEKVAKGYQYDLIAPDVPAFTKEIKNVGTESKPSFKVIYKQLPSLTIKKVLEAENNLNKEFRIKVKLTSPDSKPLNGTFGEITVVNGEAEIRVEKRKRWEGILSYLPRGTHYKVEEEAASTNGYHVTYENQEGDLNKDETSIVTNHKLPSLSVTKKVTGVFANLLKSFKITINIRDAQNSPLNGTYTATVNNKRTPLQFTNGRASIDLNKDQTIKIYGLPLDSHYTVEEESNSSRGYQVSYENQEGKLDGDKSATVTNNKNSVPETGVDFLSSTLMLGIILPLGGIFFTILLGYLVVHRRK
# Tests used:
# Experiment in all cases: glycan array binding signal (z-score within array); higher = stronger binding
# Details in all cases: glycan notation: IUPAC condensed, linker removed
# Gal3S4S(b1-4)GlcNAc = biological target: Gal3S4S(b1-4)GlcNAc
# Method in brief: (§1)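 Negative Z-scores can be read as non-binding. The Z-score is calculated within each array and then averaged across arrays of one protein sequence at different concentrations or buffers and across linkers. Arrays, 3228 in all, were curated from the Consortium for Functional Glycomics database and kept only where the protein sequence was available.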
# Gal3S6S(b1-4)GlcNAc = biological target: Gal3S6S(b1-4)GlcNAc
# Method in brief: as §1
# Gal3S6S(b1-4)GlcNAc6S = biological target: Gal3S6S(b1-4)GlcNAc6S
# Method in brief: as §1
# Gal4S(b1-4)GlcNAc = biological target: Gal4S(b1-4)GlcNAc
# Method in brief: as §1
# Gal4S6S(b1-4)GlcNAc = biological target: Gal4S6S(b1-4)GlcNAc
# Method in brief: as §1
# Gal6P(b1-4)GlcNAc = biological target: Gal6P(b1-4)GlcNAc
# Method in brief: as §1
# Gal6S(b1-3)GlcNAc = biological target: Gal6S(b1-3)GlcNAc
# Method in brief: as §1
# Gal6S(b1-3)GlcNAc6S = biological target: Gal6S(b1-3)GlcNAc6S
# Method in brief: as §1
# Gal6S(b1-4)Glc = biological target: Gal6S(b1-4)Glc
# Method in brief: as §1
# Gal6S(b1-4)Glc6S = biological target: Gal6S(b1-4)Glc6S
# Method in brief: as §1
# Gal6S(b1-4)GlcNAc = biological target: Gal6S(b1-4)GlcNAc
# Method in brief: as §1
# Gal6S(b1-4)GlcNAc6S = biological target: Gal6S(b1-4)GlcNAc6S
# Method in brief: as §1
# GalNAc(a1-3)Gal = biological target: GalNAc(a1-3)Gal
# Method in brief: as §1
# GalNAc(a1-3)GalNAc = biological target: GalNAc(a1-3)GalNAc
# Method in brief: as §1
# [1] = biological target: GalNAc(a1-3)GalNAc(b1-3)Gal(a1-4)Gal(b1-4)Glc
# Method in brief: as §1
# [2] = biological target: GalNAc(a1-3)GalNAc(b1-3)Gal(a1-4)Gal(b1-4)GlcNAc
# Method in brief: as §1
# GalNAc(b1-3)Gal = biological target: GalNAc(b1-3)Gal
# Method in brief: as §1
# [3] = biological target: GalNAc(b1-3)Gal(a1-4)Gal(b1-4)GlcNAc
# Method in brief: as §1
# [4] = biological target: GalNAc(b1-3)Gal(a1-4)Gal(b1-4)GlcNAc(b1-3)Gal(b1-4)Glc
# Method in brief: as §1
# [5] = biological target: GalNAc(b1-3)Gal(a1-6)Gal(b1-4)Glc
# Method in brief: as §1
# GalNAc(b1-3)GalNAc = biological target: GalNAc(b1-3)GalNAc
# Method in brief: as §1
# GalNAc(b1-4)Gal(b1-4)Glc = biological target: GalNAc(b1-4)Gal(b1-4)Glc
# Method in brief: as §1
# GalNAc(b1-4)GlcNAc = biological target: GalNAc(b1-4)GlcNAc
# Method in brief: as §1
# [6] = biological target: GalNAc(b1-4)GlcNAc(b1-2)Man(a1-3)[GalNAc(b1-4)GlcNAc(b1-2)Man(a1-6)]Man(b1-4)GlcNAc(b1-4)GlcNAc
# Method in brief: as §1
# GalNAc(b1-4)GlcNAc6S = biological target: GalNAc(b1-4)GlcNAc6S
# Method in brief: as §1
# GalNAc(b1-6)GalNAc = biological target: GalNAc(b1-6)GalNAc
# Method in brief: as §1
# GalNAc3S(b1-4)GlcNAc = biological target: GalNAc3S(b1-4)GlcNAc
# Method in brief: as §1
# GalNAc3S(b1-4)GlcNAc3S = biological target: GalNAc3S(b1-4)GlcNAc3S
# Method in brief: as §1
# GalNAc4S6S(b1-4)GlcNAc = biological target: GalNAc4S6S(b1-4)GlcNAc
# Method in brief: as §1
# GalNAc6S(b1-4)GlcNAc = biological target: GalNAc6S(b1-4)GlcNAc
# Method in brief: as §1
binder,measurement,setting,value
B1,glycan array binding signal (z-score),Gal3S4S(b1-4)GlcNAc,-0.651
same,glycan array binding signal (z-score),Gal3S6S(b1-4)GlcNAc,-0.371
same,glycan array binding signal (z-score),Gal3S6S(b1-4)GlcNAc6S,-0.354
same,glycan array binding signal (z-score),Gal4S(b1-4)GlcNAc,-0.568
same,glycan array binding signal (z-score),Gal4S6S(b1-4)GlcNAc,0.317
same,glycan array binding signal (z-score),Gal6P(b1-4)GlcNAc,-0.275
same,glycan array binding signal (z-score),Gal6S(b1-3)GlcNAc,-0.368
same,glycan array binding signal (z-score),Gal6S(b1-3)GlcNAc6S,1.48
same,glycan array binding signal (z-score),Gal6S(b1-4)Glc,-0.151
same,glycan array binding signal (z-score),Gal6S(b1-4)Glc6S,0.39
same,glycan array binding signal (z-score),Gal6S(b1-4)GlcNAc,-0.419
same,glycan array binding signal (z-score),Gal6S(b1-4)GlcNAc6S,0.441
same,glycan array binding signal (z-score),GalNAc(a1-3)Gal,0.065
same,glycan array binding signal (z-score),GalNAc(a1-3)GalNAc,-0.516
same,glycan array binding signal (z-score),[1],-0.395
same,glycan array binding signal (z-score),[2],-0.47
same,glycan array binding signal (z-score),GalNAc(b1-3)Gal,-0.695
same,glycan array binding signal (z-score),[3],-0.339
same,glycan array binding signal (z-score),[4],0.654
same,glycan array binding signal (z-score),[5],-0.44
same,glycan array binding signal (z-score),GalNAc(b1-3)GalNAc,-0.488
same,glycan array binding signal (z-score),GalNAc(b1-4)Gal(b1-4)Glc,0.365
same,glycan array binding signal (z-score),GalNAc(b1-4)GlcNAc,-0.306
same,glycan array binding signal (z-score),[6],-0.627
same,glycan array binding signal (z-score),GalNAc(b1-4)GlcNAc6S,-0.446
same,glycan array binding signal (z-score),GalNAc(b1-6)GalNAc,-0.59
same,glycan array binding signal (z-score),GalNAc3S(b1-4)GlcNAc,-0.562
same,glycan array binding signal (z-score),GalNAc3S(b1-4)GlcNAc3S,-0.375
same,glycan array binding signal (z-score),GalNAc4S6S(b1-4)GlcNAc,-0.499
same,glycan array binding signal (z-score),GalNAc6S(b1-4)GlcNAc,0.019
